In the supplement of paper PMC5499739:
Over roughly 16,000 sequences, “Z-score” has its median near -0.37; the highest 2% begin near 3.2. This is one part of the list.

What follows are sequences tested on RBM10 RRM1-ZnF (GST-tagged construct) (assay: RNAcompete 7-mer binding Z-score; higher = stronger binding preference).
Summary of the method: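 In 1 ml Hepes pH 7.8 buffer with KCl, NaCl, glycerol, DTT, BSA and glutathione Sepharose beads, GST-tagged RBM10 constructs (20 pmol) were incubated for 30 min at 4°C with 1.5 nmol of a designed pool of 241 399 RNAs up to 41 nt. Four 2-min washes at 4°C followed, and bound RNA was detected by microarray hybridisation. Heptamer motif enrichment was expressed as a one-sided Z-score across probes containing each motif.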

| Sequence | RNAcompete 7-mer binding Z-score |
| --- | --- |
| CUUGCAG | -0.733 |
| AGGUUUG | 1.32 |
| GUUCAGG | 0.683 |
| CUUAAGU | -0.639 |
| AUGACUG | -0.00246 |
| CCUGUGA | -0.62 |
| CCGGGUU | 0.647 |
| CUUCACG | -0.798 |
| UCUUAGA | -0.594 |
| ACAGCUA | -0.503 |
| AUGGAGU | 2.63 |
| AAACGAG | 0.303 |
| UACGAGA | -0.246 |
| UGACCCA | -0.5 |
| CGUGCCG | -0.415 |
| GAGCGAA | 0.823 |
| ACGCAUG | -0.0804 |
| GCACGCC | -0.467 |
| GCUGACG | 0.313 |
| CAAGUAU | -0.285 |
| AUAUAUU | -0.652 |
| CAUAUAU | -0.672 |
| GCGGCUC | 0.0105 |

| Sequence | RNAcompete 7-mer binding Z-score |
| --- | --- |
| UAAACGC | -0.542 |
| AUAUUGA | -0.292 |
| AAACUAG | -0.327 |
| UACGCCC | -0.655 |
| GUAUUCC | -0.392 |
| UGAACCA | -0.409 |
| GAGUGCG | 1.42 |
| AGUGGCU | 0.547 |
| GGAAGCU | 0.797 |
| CCAAGUU | -0.701 |
| AAAUCAC | -0.591 |
| UUCGUUU | -0.548 |
| UAAUGAU | -0.402 |
| AUAUUAC | -0.655 |
| CUGACAA | -0.457 |
| CACGCCA | -0.623 |
| GCAUCUU | -0.811 |
| ACGGGUA | 2.05 |
| CUUUCCU | -0.906 |
| GCCAGAC | -0.386 |
| UCCGUCG | -0.425 |
| GCGCAUA | -0.386 |
| GUAUCAU | -0.288 |

| Sequence | RNAcompete 7-mer binding Z-score |
| --- | --- |
| UGGUAUU | 0.326 |
| GUCUCCU | -0.584 |
| CAGCUGU | -0.548 |
| CGAAGAC | -0.542 |
| CAUUUCA | -0.85 |
| UUACGGU | -0.0317 |
| ACCAGAU | -0.597 |
| UCGAUCA | -0.49 |
| CGCGAUG | -0.0999 |
| UCGUCUG | -0.623 |
| UUCAGAC | -0.652 |
| AUCCGUG | -0.72 |
| ACCAGGA | 0.823 |
| UCAACAA | -0.604 |
| GUGUCCC | -0.103 |
| GUUUCAA | -0.594 |
| GUUAUCG | 0.0885 |
| CAACAUU | -0.639 |
| CAACUGG | 0.0528 |
| ACAAUCU | -0.889 |
| CGUGCGG | 1.09 |
| CUGGCUA | -0.402 |
| UUAUUAG | -0.311 |

| Sequence | RNAcompete 7-mer binding Z-score |
| --- | --- |
| AAACCGU | -0.72 |
| GGGCUGA | 1.46 |
| UCUAUGU | -0.581 |
| ACUAAGA | -0.324 |
| CCCAACC | -0.613 |
| AGGGGGC | 1.83 |
| AUCUAUU | -0.668 |
| UAUUGCA | -0.48 |
| CCGAGUC | -0.772 |
| AGCGUCG | -0.035 |
| AACCAUU | -0.87 |
| CCUAGUC | -0.652 |
| CAUAAUG | -0.217 |
| CCUACGC | -0.672 |
| CGCAAUA | -0.415 |
| UCGUACA | -0.448 |
| GGACCGU | -0.142 |
| ACGAUUC | -0.675 |
| GACGCCG | -0.717 |
| AGAGAUU | -0.126 |
| GCAGUAA | 0.339 |
| ACCCCCA | -0.331 |
| UUGCGCU | -0.73 |

| Sequence | RNAcompete 7-mer binding Z-score |
| --- | --- |
| CAUGAAG | 0.03 |
| GACCUAG | -0.295 |
| UACGGUC | -0.578 |
| UAACUUC | -0.727 |
| CUGACAG | -0.142 |
| CACCGGA | -0.0772 |
| GGGGUGA | 4.16 |
| UGGUGUG | 2.77 |
| CGCCAAU | -0.613 |
| UGUCCGC | -0.62 |
| ACCACCC | -0.483 |
| CGCUACC | -0.724 |
| AAGGUCG | 1.76 |
| GAUCGAU | -0.298 |
| AACAGAU | -0.0902 |
| AGAGCGU | -0.201 |
| CGGUUCC | -0.366 |
| CAGGGGA | 2.99 |
| ACGUUAU | -0.448 |
| CUCGCCC | -0.412 |
| CCACCAC | -0.227 |
| AUAGAUC | -0.188 |
| GACUUAA | -0.591 |

| Sequence | RNAcompete 7-mer binding Z-score |
| --- | --- |
| UUCCACA | -0.662 |
| CUGAGUC | -0.649 |
| GUAAGCU | 0.0625 |
| UCAUUUU | -0.86 |
| AGGCGGU | 0.862 |
| AUCGAGG | 1.07 |
| CGAUACG | -0.22 |
| CGUUGUC | -0.568 |
| GAGGGUU | 3.03 |
| CGCUGAG | -0.158 |
| UCCUGUC | -0.776 |
| GAGUCCG | -0.428 |
| AGUCCCA | -0.714 |
| CGUAACA | -0.262 |
| CUUUCGG | -0.565 |
| CCAGAUA | -0.688 |
| UAUAGAU | -0.266 |
| UAUAUAC | -0.513 |
| AUGUUCA | -0.727 |
| CGACACC | -0.561 |
| UCCUUGA | -0.72 |
| GUCUGUU | -0.48 |
| AAGCAAA | -0.0447 |

| Sequence | RNAcompete 7-mer binding Z-score |
| --- | --- |
| GACGUAG | 0.608 |
| AAUCAGA | -0.162 |
| GGAGUAU | 1.45 |
| CGCCGCG | -0.217 |
| UCAAUUA | -0.646 |
| UUCGUCC | -0.782 |
| GUUAGUA | 0.342 |
| GCUUGAU | -0.545 |
| UCCUCAC | -0.694 |
| AGUGUCA | -0.357 |
| GUAAGAC | 0.124 |
| GUGUGAU | 0.491 |
| UACGGAC | 0.293 |
| ACCAGAC | -0.6 |
| CUCCGGA | -0.347 |
| GAGAAUU | 0.0235 |
| AAUCGUG | -0.23 |
| GGGUAAA | 3.98 |
| UCUGCCU | -0.857 |
| CAGUGGG | 2.24 |
| UCACGGC | -0.681 |
| GGUUGAA | 1.86 |
| CCUUUUA | -0.993 |

| Sequence | RNAcompete 7-mer binding Z-score |
| --- | --- |
| CUUAUGA | -0.62 |
| UAGCGGU | 0.209 |
| CUUCACU | -0.828 |
| ACUACCU | -0.824 |
| CAUAGCC | -0.776 |
| GCAUGCA | -0.116 |
| CUGUACG | -0.344 |
| UAAAGGA | 1.62 |
| GCGAUUU | -0.613 |
| GCUGCGC | -0.0642 |
| GUCUUUA | -0.652 |
| UAGUAUU | -0.295 |
| UUUAUAG | -0.483 |
| CGUAGGC | 0.345 |
| GGCGAAC | 0.686 |
| GCGUGGU | 1.59 |
| CCACCAA | -0.724 |
| CGGGGCG | 2.69 |
| GCUUUCU | -0.818 |
| GUACGAC | -0.165 |
| UUCAUAC | -0.756 |
| UACACCG | -0.464 |
